Laboratory results from the supplement of paper PMC8728848.
This is one part of the list.

Columns and labels:
Assay in all cases: glycan array binding signal (z-score within array); higher = stronger binding
Conditions in all cases: glycan notation: IUPAC condensed, linker removed
[1] = target: Gal(b1-3)GlcNAc(b1-6)[Gal(b1-3)]GalNAc
In short: (§1)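 Glycan array data came from 3228 arrays in the Consortium for Functional Glycomics database, and only arrays with an available protein sequence were kept. Glycan names were put into IUPAC-condensed notation, and columns mapping to the same glycan were averaged. The binding signal is a within-array Z-score, averaged across arrays of one protein sequence run at different concentrations or buffers and across linkers. A negative Z-score can be read as non-binding.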

[2] = target: Gal(b1-3)GlcNAc6S
In short: as §1

[3] = target: Gal(b1-3)[Fuc(a1-4)]GlcNAc
In short: as §1

[4] = target: Gal(b1-3)[Fuc(a1-4)]GlcNAc(b1-2)Man
In short: as §1

[5] = target: Gal(b1-3)[Fuc(a1-4)]GlcNAc(b1-2)Man(a1-3)[Gal(b1-3)[Fuc(a1-4)]GlcNAc(b1-2)Man(a1-6)]Man(b1-4)GlcNAc(b1-4)[Fuc(a1-6)]GlcNAc
In short: as §1

[6] = target: Gal(b1-3)[Fuc(a1-4)]GlcNAc(b1-3)Gal(b1-3)[Fuc(a1-4)]GlcNAc
In short: as §1

[7] = target: Gal(b1-3)[Fuc(a1-4)]GlcNAc(b1-3)Gal(b1-4)[Fuc(a1-3)]GlcNAc
In short: as §1

[8] = target: Gal(b1-3)[Fuc(a1-4)]GlcNAc(b1-6)GalNAc
In short: as §1

[9] = target: Gal(b1-3)[GlcNAc(b1-6)]GalNAc
In short: as §1

[10] = target: Gal(b1-3)[Neu5Ac(a2-6)]GalNAc
In short: as §1

[11] = target: Gal(b1-3)[Neu5Ac(a2-6)]GlcNAc(b1-4)Gal(b1-4)Glc
In short: as §1

[12] = target: Gal(b1-3)[Neu5Ac(b2-6)]GalNAc
In short: as §1

[13] = target: Gal(b1-4)Gal
In short: as §1

[14] = target: Gal(b1-4)GalNAc(a1-3)[Fuc(a1-2)]Gal(b1-4)GlcNAc
In short: as §1

[15] = target: Gal(b1-4)GalNAc(b1-3)[Fuc(a1-2)]Gal(b1-4)GlcNAc
In short: as §1

[16] = target: Gal(b1-4)Glc
In short: as §1

[17] = target: Gal(b1-4)Glc6S
In short: as §1

[18] = target: Gal(b1-4)GlcNAc
In short: as §1

[19] = target: Gal(b1-4)GlcNAc(a1-6)Gal(b1-4)GlcNAc
In short: as §1

[20] = target: Gal(b1-4)GlcNAc(b1-2)Man
In short: as §1

[21] = target: Gal(b1-4)GlcNAc(b1-2)Man(a1-3)Man(b1-4)GlcNAc(b1-4)GlcNAc
In short: as §1

[22] = target: Gal(b1-4)GlcNAc(b1-2)Man(a1-3)[Gal(b1-4)GlcNAc(b1-2)Man(a1-6)]Man(b1-4)GlcNAc(b1-4)GlcNAc
In short: as §1

[23] = target: Gal(b1-4)GlcNAc(b1-2)Man(a1-3)[Gal(b1-4)GlcNAc(b1-2)Man(a1-6)]Man(b1-4)GlcNAc(b1-4)[Fuc(a1-6)]GlcNAc
In short: as §1

[24] = target: Gal(b1-4)GlcNAc(b1-2)Man(a1-3)[Gal(b1-4)GlcNAc(b1-2)Man(a1-6)][Gal(b1-4)GlcNAc(b1-4)]Man(b1-4)GlcNAc(b1-4)[Fuc(a1-6)]GlcNAc
In short: as §1

[25] = target: Gal(b1-4)GlcNAc(b1-2)Man(a1-3)[Gal(b1-4)GlcNAc(b1-2)Man(a1-6)][GlcNAc(b1-4)]Man(b1-4)GlcNAc(b1-4)[Fuc(a1-6)]GlcNAc
In short: as §1

[26] = target: Gal(b1-4)GlcNAc(b1-2)Man(a1-3)[GlcNAc(b1-2)Man(a1-6)]Man(b1-4)GlcNAc(b1-4)GlcNAc
In short: as §1

[27] = target: Gal(b1-4)GlcNAc(b1-2)Man(a1-3)[GlcNAc(b1-4)][Gal(b1-4)GlcNAc(b1-2)Man(a1-6)]Man(b1-4)GlcNAc(b1-4)GlcNAc
In short: as §1

[28] = target: Gal(b1-4)GlcNAc(b1-2)Man(a1-3)[Man(a1-6)]Man(b1-4)GlcNAc(b1-4)GlcNAc
In short: as §1

[29] = target: Gal(b1-4)GlcNAc(b1-2)Man(a1-6)Man(b1-4)GlcNAc(b1-4)GlcNAc
In short: as §1

[30] = target: Gal(b1-4)GlcNAc(b1-2)Man(a1-6)[GlcNAc(b1-2)Man(a1-3)]Man(b1-4)GlcNAc(b1-4)GlcNAc
In short: as §1

[31] = target: Gal(b1-4)GlcNAc(b1-2)Man(a1-6)[Man(a1-3)]Man(b1-4)GlcNAc(b1-4)GlcNAc
In short: as §1

[32] = target: Gal(b1-4)GlcNAc(b1-2)[Gal(b1-4)GlcNAc(b1-4)]Man(a1-3)[Gal(b1-4)GlcNAc(b1-2)Man(a1-6)]Man(b1-4)GlcNAc(b1-4)GlcNAc
In short: as §1

[33] = target: Gal(b1-4)GlcNAc(b1-2)[Gal(b1-4)GlcNAc(b1-4)]Man(a1-3)[Gal(b1-4)GlcNAc(b1-2)[Gal(b1-4)GlcNAc(b1-6)]Man(a1-6)]Man(b1-4)GlcNAc(b1-4)GlcNAc
In short: as §1

[34] = target: Gal(b1-4)GlcNAc(b1-2)[Gal(b1-4)GlcNAc(b1-4)]Man(a1-3)[GlcNAc(b1-4)][Gal(b1-4)GlcNAc(b1-2)Man(a1-6)]Man(b1-4)GlcNAc(b1-4)GlcNAc
In short: as §1

[35] = target: Gal(b1-4)GlcNAc(b1-2)[Gal(b1-4)GlcNAc(b1-4)]Man(a1-3)[GlcNAc(b1-4)][Gal(b1-4)GlcNAc(b1-2)[Gal(b1-4)GlcNAc(b1-6)]Man(a1-6)]Man(b1-4)GlcNAc(b1-4)GlcNAc
In short: as §1

[36] = target: Gal(b1-4)GlcNAc(b1-2)[Gal(b1-4)GlcNAc(b1-6)]Man(a1-6)[Gal(b1-4)GlcNAc(b1-2)Man(a1-3)]Man(b1-4)GlcNAc(b1-4)GlcNAc
In short: as §1

[37] = target: Gal(b1-4)GlcNAc(b1-2)[Gal(b1-4)GlcNAc(b1-6)]Man(a1-6)[Gal(b1-4)GlcNAc(b1-2)Man(a1-3)]Man(b1-4)GlcNAc(b1-4)[Fuc(a1-6)]GlcNAc
In short: as §1

[38] = target: Gal(b1-4)GlcNAc(b1-2)[Gal(b1-4)GlcNAc(b1-6)]Man(a1-6)[GlcNAc(b1-4)][Gal(b1-4)GlcNAc(b1-2)Man(a1-3)]Man(b1-4)GlcNAc(b1-4)GlcNAc
In short: as §1

[39] = target: Gal(b1-4)GlcNAc(b1-2)[Gal(b1-4)GlcNAc(b1-6)]Man(a1-6)[GlcNAc(b1-4)][Gal(b1-4)GlcNAc(b1-2)[Gal(b1-4)GlcNAc(b1-4)]Man(a1-3)]Man(b1-4)GlcNAc(b1-4)[Fuc(a1-6)]GlcNAc
In short: as §1

[40] = target: Gal(b1-4)GlcNAc(b1-3)Gal(b1-3)GalNAc
In short: as §1

[41] = target: Gal(b1-4)GlcNAc(b1-3)Gal(b1-3)GlcNAc
In short: as §1

[42] = target: Gal(b1-4)GlcNAc(b1-3)Gal(b1-4)Glc
In short: as §1

[43] = target: Gal(b1-4)GlcNAc(b1-3)Gal(b1-4)GlcNAc
In short: as §1

[44] = target: Gal(b1-4)GlcNAc(b1-3)Gal(b1-4)GlcNAc(b1-2)Man(a1-3)[Gal(b1-4)GlcNAc(b1-3)Gal(b1-4)GlcNAc(b1-2)Man(a1-6)]Man(b1-4)GlcNAc(b1-4)GlcNAc
In short: as §1

[45] = target: Gal(b1-4)GlcNAc(b1-3)Gal(b1-4)GlcNAc(b1-2)Man(a1-3)[Gal(b1-4)GlcNAc(b1-3)Gal(b1-4)GlcNAc(b1-2)Man(a1-6)]Man(b1-4)GlcNAc(b1-4)[Fuc(a1-6)]GlcNAc
In short: as §1

B1: TIM1 (protein)
chain: ADGIQSVKVGGEAGPSVTLPCHYSGAVTSMCWNRGSCSLFTCQNGIVWTNGTHVTYRKDTRYKLLGDLSRRDVSLTIENTAVSDSGVYCCRVEHRGWFNDMKITVSLEIVPPHHHHHH
[1]
  glycan array binding signal (z-score): -0.192
[2]
  glycan array binding signal (z-score): -0.212
[3]
  glycan array binding signal (z-score): -0.25
[4]
  glycan array binding signal (z-score): 0
[5]
  glycan array binding signal (z-score): -0.173
[6]
  glycan array binding signal (z-score): -0.256
[7]
  glycan array binding signal (z-score): -0.269
[8]
  glycan array binding signal (z-score): 0.158
[9]
  glycan array binding signal (z-score): -0.176
[10]
  glycan array binding signal (z-score): -0.188
[11]
  glycan array binding signal (z-score): -0.186
[12]
  glycan array binding signal (z-score): -0.248
[13]
  glycan array binding signal (z-score): -0.124
[14]
  glycan array binding signal (z-score): -0.212
[15]
  glycan array binding signal (z-score): -0.268
[16]
  glycan array binding signal (z-score): -0.175
[17]
  glycan array binding signal (z-score): -0.043
[18]
  glycan array binding signal (z-score): -0.241
[19]
  glycan array binding signal (z-score): -0.255
[20]
  glycan array binding signal (z-score): 0.009
[21]
  glycan array binding signal (z-score): -0.127
[22]
  glycan array binding signal (z-score): -0.246
[23]
  glycan array binding signal (z-score): 0.049
[24]
  glycan array binding signal (z-score): -0.272
[25]
  glycan array binding signal (z-score): -0.27
[26]
  glycan array binding signal (z-score): -0.183
[27]
  glycan array binding signal (z-score): -0.263
[28]
  glycan array binding signal (z-score): -0.176
[29]
  glycan array binding signal (z-score): -0.153
[30]
  glycan array binding signal (z-score): -0.166
[31]
  glycan array binding signal (z-score): -0.091
[32]
  glycan array binding signal (z-score): -0.059
[33]
  glycan array binding signal (z-score): -0.274
[34]
  glycan array binding signal (z-score): -0.279
[35]
  glycan array binding signal (z-score): -0.269
[36]
  glycan array binding signal (z-score): -0.294
[37]
  glycan array binding signal (z-score): -0.081
[38]
  glycan array binding signal (z-score): -0.257
[39]
  glycan array binding signal (z-score): -0.205
[40]
  glycan array binding signal (z-score): -0.205
[41]
  glycan array binding signal (z-score): -0.197
[42]
  glycan array binding signal (z-score): -0.209
[43]
  glycan array binding signal (z-score): -0.276
[44]
  glycan array binding signal (z-score): 7.65
[45]
  glycan array binding signal (z-score): -0.023
